{"source": "PubChem BioAssay AID2675", "about": "(National Center for Advancing Translational Sciences (NCATS), 2010)", "note": "The campaign covered roughly 280,000 compounds. About 100 (0.036%) were called active. This list was built around the results that the source calls inconclusive (neither active nor inactive); the mix of calls is not that of the screen. The call rests on the fitted dose curve; in most records, active means well fitted inhibition curve with a large enough effect in the signal ratio, with a control signal flat (not every such curve was filed as active); inconclusive means small, poorly fitted or top-dose-only effect, or effect the other way, or a change in a side signal; inactive means no such curve, though single readings can be large or run the other way; the % refers to the signal ratio. A potency beside an inconclusive call is a rough fit, not a confirmed value. A note “side channel” means that the fit belongs to a control or component signal, not to the main read-out. On the % scale 0 is the no-effect control and ±100 the full control effect; potency means the concentration at half of the fitted maximal effect; tags describe the fitted curve by direction and shape or compound fluorescence and quenching."}
{"molecular_target": "Muscleblind-like protein 1 (Homo sapiens) (UniProt Q9NR56)", "sequence (Q9NR56 whole entry, looked up)": "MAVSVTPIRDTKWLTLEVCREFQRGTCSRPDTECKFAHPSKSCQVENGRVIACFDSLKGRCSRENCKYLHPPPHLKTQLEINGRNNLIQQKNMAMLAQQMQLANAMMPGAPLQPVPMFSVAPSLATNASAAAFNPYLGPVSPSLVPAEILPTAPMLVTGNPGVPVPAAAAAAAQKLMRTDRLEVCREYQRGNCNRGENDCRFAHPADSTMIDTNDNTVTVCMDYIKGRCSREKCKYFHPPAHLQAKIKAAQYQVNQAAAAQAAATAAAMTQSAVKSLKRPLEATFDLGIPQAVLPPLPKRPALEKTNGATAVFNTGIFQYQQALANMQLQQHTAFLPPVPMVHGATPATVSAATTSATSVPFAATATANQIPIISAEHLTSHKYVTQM", "test": "qHTS Assay for Inhibitors of MBNL1-poly(CUG) RNA binding", "details": "TR-FRET MBNL1-His/biotin-(CUG)12 binding, 665/545 ratio; activity change, negative = inhibition: at 57.5 µM (top of the series)", "method_in_brief": "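His-tagged MBNL1 binding to biotinylated (CUG)12 RNA was measured by TR-FRET using terbium anti-His antibody (0.055 ng/ul final) and streptavidin-XL665 (5 nM final). Compounds were titrated 92 nM to 58 uM; 60 min at room temperature.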"}
{"smiles": "Cc1cccc(N(C(=O)Cn2nnc3ccccc32)C(C(=O)NCc2ccco2)c2ccncc2)c1", "note": "(centres undefined)", "Potency": "inconclusive: 1.78 µM [fluorescent, side channel, full curve, poor fit]"}
{"smiles": "COc1ccccc1-c1nc(C#N)c(N2CCN(c3cccc(Cl)c3)CC2)o1", "Potency": "inconclusive: 25.1 µM [quencher, side channel, single point]"}
{"smiles": "O=C(/C=C\\Nc1ccccc1Br)c1ccc2c(c1)OCO2", "Potency": "inconclusive: 25.1 µM [quencher, side channel, partial curve]"}
{"smiles": "Cc1ccc(-c2nnn(CC(=O)N(CC(=O)NC3CCCC3)c3ccc(F)c(Cl)c3)n2)o1", "Potency": "inconclusive: 0.447 µM [quencher, side channel, partial curve, poor fit]"}
{"smiles": "CCOC(=O)c1nnsc1Nc1ccc(C)c(C)c1", "activity change, negative = inhibition": "inactive: -2.07%"}
{"smiles": "O=c1[nH]c2ccccc2nc1/C=C/c1ccc(O)cc1", "Potency": "inconclusive: 11.2 µM [quencher, partial curve]"}
{"smiles": "Nc1ccccc1C(=O)NNc1c2ccccc2nc2ccccc12", "Potency": "inconclusive: 28.2 µM [quencher, side channel, partial curve]"}
{"smiles": "CCCCSc1nnc(-c2ccccc2N)c(=O)[nH]1", "Potency": "inconclusive: 14.1 µM [quencher, side channel, partial curve]"}
{"smiles": "COC(=O)c1c(-c2ccc(C(C)(C)C)cc2)csc1NC(=O)C1C2CCC(O2)C1C(=O)O", "note": "(centres undefined)", "activity change, negative = inhibition": "inactive: -16.5%"}
{"smiles": "O=C(/C=C/c1ccc(Br)cc1)NCCCn1ccnc1", "Potency": "inconclusive: 3.55 µM [quencher, side channel, full curve]"}
{"smiles": "CCCOc1ccc(C(=O)OCC(=O)c2c(N)n(C)c(=O)n(C)c2=O)cc1OCC", "Potency": "inconclusive: 12.6 µM [quencher, side channel, partial curve]"}
{"smiles": "CC(C)C[C@H](NC(=O)c1nc[nH]c1C(=O)N[C@@H](CC(C)C)C(=O)OC(C)(C)C)C(=O)OC(C)(C)C", "activity change, negative = inhibition": "inactive: -4.65%"}
{"smiles": "COc1ccc(/C=C(\\NC(=O)c2ccc([N+](=O)[O-])cc2)C(=O)N2CCOCC2)cc1", "Potency": "inconclusive: 15.8 µM [quencher, side channel, partial curve]"}
{"smiles": "CCOc1ccc(=O)n(-c2ccccc2)n1", "Potency": "inconclusive: 3.55 µM [quencher, side channel, single point]"}
{"smiles": "O=[N+]([O-])c1cnc(Sc2ccncn2)s1", "Potency": "inconclusive: 5.01 µM [quencher, side channel, partial curve]"}
{"smiles": "COc1cccc2cccc(/C=N/n3cnnc3)c12", "Potency": "inconclusive: 17.8 µM [quencher, side channel, partial curve]"}
{"smiles": "N#C/C(=C\\c1cccnc1)c1ccccc1[N+](=O)[O-]", "Potency": "inconclusive: 14.1 µM [quencher, side channel, partial curve]"}
{"smiles": "Nc1cc(N)c(OCC(F)(F)F)cc1OCC(F)(F)F", "Potency": "inconclusive: 14.1 µM [quencher, side channel, partial curve]"}
{"smiles": "Cc1cccc(N2CCN(C(=O)c3ccnn3C)CC2)c1C", "activity change, negative = inhibition": "inactive: 1.56%"}
{"smiles": "COc1cc(/C=C2\\N=C(c3ccccc3)OC2=O)ccc1OC(C)=O", "Potency": "inconclusive: 31.6 µM [quencher, side channel, single point]"}
{"smiles": "CC1=C(CC(=O)NCC(=O)NCC(=O)O)c2cc(F)ccc2/C1=C/c1ccc(S(C)=O)cc1", "note": "(centres undefined)", "Potency": "inconclusive: 12.6 µM [quencher, side channel, partial curve]"}
{"smiles": "COc1ccc(NC(=O)CCC(=O)N2CCOCC2)c([N+](=O)[O-])c1", "Potency": "inconclusive: 12.6 µM [quencher, side channel, partial curve]"}
{"smiles": "CC(=O)NC(c1ccccc1)c1cc(Cl)c2cccnc2c1O", "note": "(centres undefined)", "activity change, negative = inhibition": "inactive: 12.5%"}
{"smiles": "O=C(NCC1CCCCC1)c1ccc([N+](=O)[O-])cc1", "Potency": "inconclusive: 25.1 µM [quencher, side channel, partial curve]"}
{"smiles": "O=[N+]([O-])c1cccc(Cl)c1NCCNS(=O)(=O)c1ccc(Cl)cc1", "Potency": "inconclusive: 25.1 µM [quencher, single point]"}
{"smiles": "Cc1cc([N+](=O)[O-])nn1CC(=O)Nc1cccc2nonc12", "Potency": "inconclusive: 35.5 µM [quencher, side channel, single point]"}
{"smiles": "CC(OC(=O)c1ccc2ccccc2n1)C(=O)Nc1ccc(N2CCOCC2)cc1", "note": "(centres undefined)", "Potency": "inconclusive: 28.2 µM [quencher, side channel, single point]"}
{"smiles": "COC(=O)C/C(C)=N/Nc1ccc(S(=O)(=O)N2CCCC2)cc1[N+](=O)[O-]", "Potency": "inconclusive: 7.94 µM [activator, partial curve]"}
{"smiles": "Cn1c(=N)n(CC(O)c2cccc3ccccc23)c2ccccc21", "note": "(centres undefined)", "activity change, negative = inhibition": "inactive: 4.52%"}
{"smiles": "CCOC(=O)c1nn(-c2ccc(C)c(C)c2)cc1O", "activity change, negative = inhibition": "inactive: -2.9%"}
{"smiles": "COc1ccc2nc3cccc(OC)c3nc2c1", "Potency": "inconclusive: 11.2 µM [quencher, side channel, partial curve]"}
{"smiles": "Nc1nc(Cl)cc(N2CCCC2)n1", "activity change, negative = inhibition": "inactive: -1.86%"}
{"smiles": "O=[N+]([O-])c1ccc(N2CCN(Cc3ccccc3)CC2)c(S(=O)(=O)N2CCOCC2)c1", "Potency": "inconclusive: 25.1 µM [quencher, side channel, partial curve]"}
{"smiles": "CS(=O)(=O)NC1c2cccc3cccc(c23)C1Sc1nncn1/N=C/c1ccco1", "note": "(centres undefined)", "Potency": "inconclusive: 25.1 µM [quencher, side channel, single point]"}
{"smiles": "CCC1CCCCN1CCCNC(=O)c1cc2c(=O)oc3ccc(C)cc3c2s1", "note": "(centres undefined)", "Potency": "inconclusive: 6.31 µM [quencher, side channel, partial curve]"}
{"smiles": "COC(=O)COc1ccc2c(c1C)O/C(=C\\c1ccco1)C2=O", "Potency": "inconclusive: 22.4 µM [quencher, side channel, partial curve]"}
{"smiles": "NC(=O)c1c(NC(NC(=O)c2ccco2)C(=O)c2ccc(Cl)cc2)sc2c1CCCC2", "note": "(centres undefined)", "activity change, negative = inhibition": "inactive: 19.3%"}
{"smiles": "CC(=O)c1sc2nc(CSc3nnnn3-c3ccccc3)[nH]c(=O)c2c1C", "Potency": "inconclusive: 39.8 µM [quencher, side channel, single point]"}
{"smiles": "Cc1cccc(C(=O)NC(=S)NNC(=O)c2ccccc2Cl)c1", "activity change, negative = inhibition": "inactive: -2.08%"}
